Test results as given in the supplement of paper PMC9446081.
About 220 (0.56%) of roughly 39,000 compounds showed activity. The list shows a part of the results.

Each compound was assayed on Escherichia coli K-12 BW25113 (assay: relative growth (OD600 normalised to plate interquartile mean) (fraction); higher = less growth inhibition, active = 0.2 or less). Details: 50 µM; LB; incubation time: overnight (16-24 h).
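Note: static incubation at 37 °C against the wild-type strain, values averaged over two biological replicates.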

SMILES | relative growth
C[C@H]1CN([C@@H](C)CO)C(=O)c2cccc(NC(=O)C3CCOCC3)c2O[C@H]1CN(C)S(=O)(=O)c1ccc(F)cc1 | inactive: 1.01
C[C@@H]1CN([C@H](C)CO)C(=O)c2cccc(NC(=O)Nc3ccc4c(c3)OCO4)c2O[C@@H]1CN(C)Cc1ccc(C(=O)Nc2ccccc2N)cc1 | inactive: 1.02
Cc1ccc(S(N)(=O)=O)c(C)c1 | inactive: 1.01
C[C@@H]1CN([C@@H](C)CO)C(=O)c2c(c3ccccc3n2C)-c2ccccc2CO[C@@H]1CN(C)Cc1ccc(Cl)c(Cl)c1 | inactive: 1
CCOc1ccc2ccccc2c1C(=O)NC1C(=O)N2C1SC(C)(C)C2C(=O)[O-].[Na+] (centres undefined) | inactive: 1.18
C[C@H](CO)N1C[C@H](C)[C@H](CN(C)C(=O)Nc2ccccc2)OCCCC[C@H](C)Oc2ccc(NC(=O)Nc3cccc4ccccc34)cc2C1=O | inactive: 1.02
Cc1ccc(S(=O)(=O)N(C)C[C@H]2Oc3ccc(NS(=O)(=O)c4ccccc4)cc3CC(=O)N([C@H](C)CO)C[C@H]2C)cc1 | inactive: 1.02
C[C@@H]1CCCCO[C@@H](CN(C)C(=O)CCC(F)(F)F)[C@H](C)CN([C@@H](C)CO)C(=O)c2cc(NS(=O)(=O)c3ccc(F)cc3)ccc2O1 | inactive: 0.978
C[C@@H]1CN([C@@H](C)CO)C(=O)CCCn2cc(nn2)CO[C@@H]1CN(C)C(=O)Nc1cccc(Oc2ccccn2)c1 | inactive: 0.988
C[C@@H]1CN([C@@H](C)CO)C(=O)Cc2cc(NS(=O)(=O)c3ccc(Cl)cc3)ccc2O[C@@H]1CN(C)C(=O)Nc1ccc(C(F)(F)F)cc1 | inactive: 0.976
NC(=O)CCN1C(=O)[C@@H]2[C@@H](C1=O)[C@@H]1C=C[C@@H]2C1 | inactive: 1.02
CN(C)CC#Cc1ccc([C@H]2[C@@H](CO)N3C(=O)CN(C(=O)c4cccnc4)C[C@H]23)cc1 | inactive: 0.998
C=CCCCCCCCCC(=O)Nc1ccccc1C | inactive: 1
CN(C)N(C)C(=O)[C@@]1(Cc2ccccc2)CCCN(C(=O)[C@@H](Cc2c[nH]c3ccccc23)NC(=O)C(C)(C)N)C1 | inactive: 1
Cc1ccc(S(=O)(=O)NCCOc2nc(N(C)C)nc(N3CCOCC3)n2)cc1 | inactive: 1.01
Cc1noc(C)c1S(=O)(=O)N(C)C[C@H]1OCCCC[C@H](C)Oc2ccc(NS(C)(=O)=O)cc2C(=O)N([C@@H](C)CO)C[C@@H]1C | inactive: 0.993
C[C@H]1CN([C@@H](C)CO)C(=O)CCCn2nncc2CO[C@@H]1CN(C)S(=O)(=O)c1ccccc1C#N | inactive: 1
COc1ccc(NC(=O)CSC2=NC(C)=C(C(=O)Nc3nc4ccccc4s3)[C@H](c3ccco3)C2C#N)cc1 (some centres undefined) | inactive: 1
CCN(CC)CCN(Cc1ccc(-c2ccc(C(F)(F)F)cc2)cc1)C(=O)Cn1c(SCc2ccc(F)cc2)nc(=O)c2c1CCC2 | inactive: 0.9
C[C@H]1CN([C@@H](C)CO)C(=O)c2cccc(NC(=O)Nc3ccccc3)c2O[C@@H]1CN(C)Cc1ccc(Oc2ccccc2)cc1 | inactive: 0.973

SMILES | relative growth
Cn1c(N2CCOCC2)nc2c1c(=O)[nH]c(=O)n2C | inactive: 0.994
CO[C@@H]1CN(C)C(=O)c2cc(NC(=O)Nc3cccc(Cl)c3)ccc2OC[C@@H](C)N(C(=O)Nc2c(C)noc2C)C[C@H]1C | inactive: 1.05
CC(C)C(=O)Nc1ccc([N+](=O)[O-])c(C(F)(F)F)c1 | inactive: 0.866
C[C@H]1CN([C@@H](C)CO)C(=O)c2cc(C#CC3(O)CCCC3)cnc2O[C@@H]1CN(C)C(=O)C1CCOCC1 | inactive: 0.975
O=C(C[C@@H]1CC[C@@H](NC(=O)c2ccc(F)cc2)[C@@H](CO)O1)NCc1ccncn1 | inactive: 0.991
Cc1ccccc1N1CCN(S(=O)(=O)C[C@]23CC[C@H](C[C@@H]2NC(=O)[C@@H](N)CCS(C)(=O)=O)C3(C)C)CC1 | inactive: 1.01
C[C@@H]1CN([C@@H](C)CO)C(=O)Cc2cc(NC(=O)Nc3ccc(F)cc3)ccc2O[C@H]1CN(C)Cc1ccc(C(F)(F)F)cc1 | inactive: 1.04
CO[C@@H]1CN(C)C(=O)c2cc(NC(=O)NC3CCCCC3)ccc2OC[C@H](C)N(CCc2ccccc2)C[C@@H]1C | inactive: 1.02
Cc1noc(C)c1S(=O)(=O)Nc1ccc2c(c1)C(=O)N([C@@H](C)CO)C[C@@H](C)[C@@H](CN(C)Cc1ccc(C(=O)Nc3ccccc3N)cc1)OCCCC[C@H](C)O2 | inactive: 1.03
CCO[C@H]1OC(C(=O)N2CCN(Cc3ccc4c(c3)OCO4)CC2)=C[C@@H](c2ccc(C(F)(F)F)cc2)[C@@H]1CCCOC(=O)NCCCCCC(=O)NO | inactive: 1.02
COCCNC(=O)C[C@@H]1C[C@@H]2c3cc(NC(=O)Nc4ccc(C(F)(F)F)cc4)ccc3O[C@@H]2[C@@H](CO)O1 | inactive: 0.946
C[C@H](CO)N1C[C@H](C)[C@H](CN(C)C(=O)Nc2ccccc2)Oc2ccc(NS(C)(=O)=O)cc2C1=O | inactive: 0.977
O=C(C[C@@H]1CC[C@@H]2[C@H](COC[C@H](O)CN2C(=O)Nc2cccc(F)c2)O1)NCc1ccccc1Cl | inactive: 0.929
Cn1c(=O)n2n(c1=O)[C@H](C1CC1)C=C1CN3[C@@H]([C@H](CCn4cc(-c5cccc(/C=C/C(=O)NO)c5)nn4)OC(=O)[C@@H]3Cc3ccccc3)[C@@H]12 | inactive: 1.06
COCC(=O)N1C[C@H](C)[C@@H](OC)CN(C)C(=O)c2cc(NC(=O)c3ccc(OC)cc3)ccc2OC[C@@H]1C | inactive: 1.06
C[C@@H]1CN([C@@H](C)CO)C(=O)Cc2cc(NS(=O)(=O)c3cccs3)ccc2O[C@@H]1CN(C)C(=O)Nc1cccc2ccccc12 | inactive: 0.984
O=C(C[C@@H]1CC[C@H]2[C@@H](COC[C@H](O)CN2S(=O)(=O)c2ccccc2)O1)NCc1ccc(-c2ccccc2)cc1 | inactive: 0.968
C[C@@H]1CN([C@H](C)CO)C(=O)c2c(c3ccccc3n2C)-c2ccccc2CO[C@H]1CN(C)C(=O)N[C@H](C)c1ccccc1 | inactive: 1
C[C@@H]1CCCCO[C@H](CN(C)CC2CCCCC2)[C@H](C)CN([C@@H](C)CO)C(=O)c2cc(NC(=O)Nc3ccc(C(F)(F)F)cc3)ccc2O1 | inactive: 1.02
